From PubChem BioAssay AID485344 (National Center for Advancing Translational Sciences (NCATS), 2010) come the findings set out here.

Structures are written as SMILES. Out of some 340,000 compounds screened, about 6,900 (2%) were called active. Cut-off read from the data, not from the text of the source: active = inhibition above about 30%; inactive = below that, where a call was filed. This is a selection; strong and weak results do not stand in their true shares. The source gives no active or inactive call for entries shown without one.

The target of this assay is D(2) dopamine receptor (Homo sapiens) (UniProt P14416). The experiment in a line: HTS Assay for Allosteric Antagonists of the Human D2 Dopamine Receptor: Primary Screen for Antagonists. Note: 0% is about no effect. The conditions noted are these: HEK293 TREx D2 cells, calcium flux, dopamine EC80; at 10 µM; stronger effect = higher value. In outline: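 Dopamine at EC80 is the agonist stimulus; test compounds precede it by 180 s. Calcium flux read kinetically in a force-coupled, inducible HEK293 T-REx D2 cell line.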
Chain of UniProt P14416 (P14416 whole entry, looked up): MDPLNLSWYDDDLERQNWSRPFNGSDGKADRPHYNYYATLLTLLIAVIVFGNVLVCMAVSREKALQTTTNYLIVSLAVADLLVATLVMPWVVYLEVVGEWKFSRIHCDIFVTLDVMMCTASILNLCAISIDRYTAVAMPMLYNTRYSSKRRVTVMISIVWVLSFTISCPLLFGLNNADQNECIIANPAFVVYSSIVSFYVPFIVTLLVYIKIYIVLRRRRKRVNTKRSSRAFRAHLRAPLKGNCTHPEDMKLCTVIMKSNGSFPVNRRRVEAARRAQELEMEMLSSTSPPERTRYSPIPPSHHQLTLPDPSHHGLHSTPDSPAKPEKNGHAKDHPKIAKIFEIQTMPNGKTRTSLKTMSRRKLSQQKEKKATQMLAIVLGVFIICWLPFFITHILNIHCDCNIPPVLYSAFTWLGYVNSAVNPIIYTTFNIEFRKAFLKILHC
On to `O=C(Cn1c(=O)n(-c2ccccc2)c(=O)c2c3c(sc21)CCC3)c1ccc(F)cc1`, for which the inhibition is 2.44%.
To `Cc1ccc(CNC(=O)CCS(=O)(=O)c2cc3c4c(c2)CCN4C(=O)CC3)cc1` belongs 4.34%; to `CCOC(=O)C1(CCOC)CCN(Cc2nc(-c3cccs3)oc2C)CC1`, active: 31.4%; to `CCc1ccc(NC(=O)CSc2nc3c([nH]c4ccccc43)c(=O)n2-c2ccc(C)cc2)cc1`, 23.3%.
To `O=C(Nc1ccccc1)c1ccc(NCCN2C(=O)CCC2=O)c([N+](=O)[O-])c1` belongs active: 58.6%; to `Cc1sc2ncnc(N3CCN(CCOc4ccc(Cl)cc4)CC3)c2c1C`, active: 35.5%; to `Cc1c(Cl)cccc1NC(=O)c1oc2ccc(S(=O)(=O)N3CCCCCC3)cc2c1C`, -9.48%.
Next, `CCOC(=O)c1cc2c(=O)n3ccccc3nc2n(Cc2ccco2)c1=NC(=O)c1ccc(C(C)(C)C)cc1`: -5.03%.
Consider `Cc1ccc(C)c(NC(=O)CN(C)C(=O)c2ccc3c(=O)n4c(nc3c2)CCC4)c1`, for which the inhibition is active: 32.7%.
Next, `O=C(Nc1cccc(F)c1)c1ccc2oc(=O)n(Cc3ccccc3)c2c1`: -15.7%; `CCOC(=O)c1c(NC(C)=O)c2c3c(sc2n1Cc1c(C)cc(C)cc1C)CCCC3`: 4.79%; `CCOc1ccc(N(CC(=O)NCc2ccc(OC)cc2)S(=O)(=O)c2c(C)[nH]c(=O)[nH]c2=O)cc1`: -7.82%.
As for `CCN1CCCC1CNC(=O)c1ccc(Sc2ccccc2Cl)c([N+](=O)[O-])c1` (stereo unspecified), the inhibition is active: 72.2%.
To `COc1cccc(C(=O)N(Cc2cccc(F)c2)C2CCS(=O)(=O)C2)c1` (stereo unspecified) belongs 7.34%; to `Cc1ccc2c(c1)N(CC(=O)Nc1ccccc1C(F)(F)F)C(=O)c1cccnc1O2`, 4.09%; to `COc1ccc(Cn2ccnc2SCC(=O)Nc2ccc3c(c2)OCCO3)cc1`, -7.07%.
In the case of `COc1ccc(NC(=O)CC2Oc3ccc(C)cc3NC2=O)cc1Cl` (stereo unspecified), the inhibition amounted to 18.1%.
To `COc1cc2c(cc1OC)C(COc1ccc3c(C)cc(=O)oc3c1)N(C(=O)Cc1ccc(F)cc1)CC2` (stereo unspecified) belongs -7.76%; to `Cc1cc(C)cc(-n2ccn(CC(=O)NCCc3ccccc3)c(=O)c2=O)c1`, 23.1%.
To `CN=c1scc(-c2ccc(F)cc2)n1/N=C/c1ccc(O)c(O)c1` belongs active: 76.2%; to `Cc1cccc(N(CC(=O)NCCc2ccccc2)S(=O)(=O)c2ccccc2)c1C`, 2.29%.
To `Cc1ccc(-c2csc(-c3c(N)c(C(=O)c4ccc5c(c4)OCO5)n4ccccc34)n2)cc1C` belongs 1.6%.
In the case of `COc1ccc(CCNC(=O)c2cc3c(=O)n4cccc(C)c4nc3n2C)cc1`, the inhibition was -11%.
To `CCOc1ccc(C2C(=O)N(C3CCCCCC3)CC(=O)N2Cc2ccc(C)cc2)cc1OC` (stereo unspecified) belongs 3.53%; to `O=S(=O)(c1ccc(F)cc1)N1CCc2ccccc21`, active: 36%.
To `CCC(CC)C(=O)Nc1nnc(S(=O)(=O)N(C)c2cc(C)cc(C)c2)s1` belongs -11.5%; to `Cc1cccc(CSCCNC(=O)C2CCN(S(=O)(=O)Cc3ccccc3)CC2)c1`, 7.07%.
To `COc1ccc2c(C)c(CCC(=O)NCc3cccc(Cl)c3)c(=O)oc2c1` belongs -9.44%; to `CCOc1cc(C(=O)NN2CCOCC2)cc(OCC)c1OCC`, active: 36.3%.
Take `COc1ccc(-n2c(/C=C/c3cccc4ccccc34)nc3ccccc3c2=O)cc1OC`: the inhibition is -27.3%.
To `CCC(Sc1nc2nccnc2c(=O)n1Cc1ccccc1Cl)C(=O)NC1CCCCC1` (stereo unspecified) belongs 4.93%.
Next, `Cc1ccc2nc(NCc3ccccc3)c3nncn3c2c1`: -8.18%.
To `CCn1c(=O)c2cc(C(=O)Nc3cccc(C(F)(F)F)c3)sc2c2ccccc21` belongs 3.37%; to `COc1ccc(C(=O)Nc2ccc(-c3nc4ncccc4o3)cc2C)cc1Br`, 2.96%; to `CCNC(=O)CCCN1C(=O)CCn2nc(-c3cccn3C)cc21`, 3.34%.
Take `CN(C(=O)CSc1nc2ccc(NC(=O)c3cccc(F)c3)cc2s1)c1ccccc1`: the inhibition came out at 3.94%.
To `COc1cc(Cl)c(C)cc1NC(=O)CC1Oc2ccccc2NC1=O` (stereo unspecified) belongs 6.15%.
`Cc1ccc(Cl)cc1N1CCN(CC(O)COCc2ccco2)CC1` (stereo unspecified): the inhibition is active: 97.4%.
To `Fc1ccc(CNCCCSc2nnnn2-c2ccccc2)cc1` belongs -6.83%.
Next, `COc1ccc(NC(=O)CSCc2cc(=O)c3cc(C)ccc3[nH]2)cc1`: 5.13%; `COc1ccc(Cn2c(C(=O)O)c(CNCc3ccc(OC)cc3OC)c3ccc(C)cc32)cc1`: 6.85%.
Consider `COc1ccc(CCCc2nnc(SCC(=O)Nc3cc(F)ccc3C)o2)cc1`, for which the inhibition came to 16.7%.
To `Nc1nnc(-c2ccccc2F)s1` belongs active: 44.9%; to `CCOC(=O)c1ccccc1NC(=O)c1cn(CC(C)C)c(=O)c2cc(OC)c(OC)cc12`, -4%; to `COc1ccc(N2CCC(CNS(=O)(=O)c3cccc(C(F)(F)F)c3)C2)cc1` (stereo unspecified), active: 38%.
To `COc1ccc(OC)c(-c2noc(CSc3nnc(-c4ccccc4)n3-c3ccccc3)n2)c1` belongs 1.45%.
To `CC(C)n1ncc2c(C(=O)NCc3ccccc3CN(C)C)cc(C3CC3)nc21` belongs active: 79.9%; to `Cc1ccc(OCC(=O)Nc2nnc(S(=O)(=O)N3CCc4ccccc43)s2)cc1`, 20.6%.
In the case of `O=C(CN1CCSC1=O)N1CCN(S(=O)(=O)c2ccccc2)CC1`, the inhibition is active: 37.3%.
`COc1ccc(N2CCN(S(=O)(=O)c3ccc(C4CCCCC4)cc3)CC2)cc1`: the inhibition was -7.27%.
Next, `COc1ccc(Cl)cc1NC(=O)CSc1nc(=O)n(Cc2ccco2)c2c1CCC2`: -16.2%; `O=C(CSc1nnc(-c2ccncc2)n1-c1ccccc1)Nc1ccc(F)cc1`: 14%; `CCOc1ccccc1CNC(=O)CSc1n[nH]c(-c2ccccc2)n1`: 2.58%.
Next, `CC(C)c1noc(-c2ccccc2OCC(=O)Nc2ccc([N+](=O)[O-])cc2)n1`: 13.6%; `COc1ccc(OC)c(C2C(C(=O)Nc3ccc(C)cc3C)=C(C)Nc3c(C(=O)Nc4ccc(F)cc4)cnn32)c1` (stereo unspecified): 1.59%; `Cc1cc(=O)n(Cc2cccc(Cl)c2)c2c1c(C)nn2C`: -0.585%.
As for `Cc1ccc(NC(=O)Nc2nnc(SCC(=O)N3CCCCC3)s2)cc1`, the inhibition was -13.4%.
Next, `CC(C)c1ccc2c(c1)NC(c1ccc(F)cc1)=NC(c1cccs1)=N2`: 23.2%; `Fc1ccc(-c2noc3ncnc(NCCc4ccc(Cl)cc4)c23)cc1`: -5.77%.
Next, `COc1cccc(N2CC(NC(=O)c3cc4ccccc4o3)CC2=O)c1` (stereo unspecified): 19%.
`COc1ccc2c(c1)c(C(O)CN1CCC(Cc3ccccc3)CC1)c(C)n2C` (stereo unspecified): the inhibition is active: 50.8%.
To `COc1cccc(CNC(=O)N2CCc3c(sc4c3CCCC4)C2c2ccc(F)cc2)c1` (stereo unspecified) belongs -4.48%; to `C=CCn1c(-c2c(C)nc3cc(C)ccn23)n[nH]c1=S`, active: 35.6%; to `Cc1nc2ncnn2c(C)c1CCC(=O)N1CCN(c2ccc(F)cc2)CC1`, 14%.
On to `Cc1cccc(C(=O)NCCc2nc3ccccc3n2Cc2ccccc2Cl)c1`, for which the inhibition came out at 4.55%.
With `Cc1cc(Nc2cccc(C(F)(F)F)c2)nc2ccc(NC(=O)Cc3ccc(Cl)cc3)cc12`, the inhibition was determined as 7.43%.
To `COc1ccc(OCC(=O)Nc2ccc(-c3nc4cc(Cl)ccc4o3)cc2)cc1` belongs 1.45%.
Next, `CCOc1ccccc1NC(=O)Cn1c(=O)n(CC(=O)NCc2ccccc2Cl)c(=O)c2sccc21`: -18.2%; `CCCN(CCC)C(=O)Cn1c(=O)n(-c2ccc(OC)cc2OC)c(=O)c2c3c(sc21)CCC3`: -4.69%.
Next, `CCOc1ccc(CNC(=O)c2ccc3c(c2)c(C)c(C)n3C)cc1`: 7.71%; `COc1ccc(CCNC(=O)CCCCn2c(=O)c3ccccc3n(Cc3cc(C)ccc3C)c2=O)cc1OC`: 5.19%.
Take `Cc1ccc(Sc2ccc(N3CCCC(C(=O)Nc4ccc(F)c(Cl)c4)C3)nn2)cc1` (stereo unspecified): the inhibition turned out to be 2.29%.
`CCOc1ccc(-n2c(SCc3ccccc3)nc3c([nH]c4ccccc43)c2=O)cc1`: the inhibition is -6.58%.
To `CCCn1c2ccccc2c2cnn(CC(=O)NCC3CCN(Cc4ccc(C)cc4)CC3)c(=O)c21` belongs -0.258%; to `CCCCOc1cccc(C(=O)Nc2sc3c(c2C(=O)OCC)CCCC3)c1`, -4.21%.
Next, `COc1cccc(NC(=O)CSc2nc(=O)n(Cc3cccnc3)c3c2CCC3)c1`: -12.2%; `Cc1cccc2c(=O)cc(CSc3ccccc3NC(=O)C(C)C)[nH]c12`: -5.99%; `Cc1ccc2nc3c(cc(C#N)c(=O)n3-c3nnc(SCc4ccc(F)cc4)s3)c(=O)n2c1`: -12.6%.
To `CC(C)(C)c1ccc(OCC(=O)Nc2ccc(C(=O)OC3CCCCC3)cc2)cc1` belongs -11.6%; to `CC(C)Cn1nc(NC(=O)c2cccc(Cl)c2)c2cc3ccccc3nc21`, 6.11%; to `CCc1ccccc1NC(=O)c1oc(=O)c2ccccc2c1-c1ccccc1`, 3.06%.
Regarding `NC(=O)c1nc(Nc2ccccc2)sc1NC(=O)c1c(F)cccc1F`, the inhibition was -1.73%.
To `CCOC(=O)c1ccc(NC(=O)c2c(NCc3sccc3C)sc3c2CCC(C)C3)cc1` (stereo unspecified) belongs 6.23%; to `Cc1ccc(C)c(N2CCN(C(=O)CCc3nnc4n(C)c(=O)c5ccccc5n34)CC2)c1`, -4.79%.
`CN1CCN(C(CNC(=O)C(=O)Nc2ccc(Cl)cc2)c2cccnc2)CC1` (stereo unspecified): the inhibition was -0.427%.
Next, `CCOCCCNC(=O)c1c[nH]c2ccc(S(=O)(=O)N(C)c3ccc(Cl)cc3F)cc2c1=O`: 8.18%; `CCOC(=O)c1cccnc1SCC(=O)N(CC)c1cccc(C)c1`: -15%; `CC(C)C[C@H](N)c1nnc(SCc2ccc(Cl)cc2Cl)o1`: 11.7%.
To `Cc1ccc(-c2nc(S(=O)(=O)c3ccc(F)cc3)c(N3CCN(c4ccccc4)CC3)o2)cc1` belongs -14.7%; to `Cc1oc(-c2ccc(Cl)cc2)nc1CSCC(=O)NC1CCN(Cc2ccccc2)CC1`, active: 56.4%.
To `CC1=C(c2ccc(C(C)C)cc2)S(=O)(=O)N=C1N1CCN(c2ccccc2F)CC1` belongs 0.662%.
For the compound `CCOc1ccccc1NC(=O)Cn1nnc(C(=O)NCc2cccs2)c1N`, the inhibition was -17.7%.
Next, `CCCCn1c(SCC(=O)c2ccc(OCC)cc2)nc2cc(S(N)(=O)=O)ccc21`: active: 44.7%; `O=C(NCc1ccccc1)c1cc(Sc2cccc(Cl)c2)nc2ccccc12`: 19%.
To `CC(=O)N1c2ccccc2C(=O)C1N1CCN(c2ccc(Cl)cc2)CC1` (stereo unspecified) belongs 3.08%.
Next, `COc1ccc(NCc2cc3cc4c(cc3n(CC(=O)Nc3ccc(C)cc3C)c2=O)OCO4)cc1`: 2.86%.
